From ChEMBL document CHEMBL4888484, “Replenishing the malaria drug discovery pipeline: Screening and hit evaluation of the MMV Hit Generation Library 1 (HGL1) against asexual blood stage Plasmodium falciparum ,using a nano luciferase reporter read-out” (2022)
Screen size: about 150,000 compounds; about 540 (0.36%) showed an effect of 50% or more. Some of the results follow.

The molecules below were run on Plasmodium falciparum (assay: Primary screen in NF54 nanoGlo assay, in single point, at 2uM, 72h; a lower Z score goes with more inhibition). Details: timepoint 72 hour.
Type: functional, Erythrocyte

Row | SMILES | % Inhibition | Z score
1 | O=C(N[C@@H](Cc1ccccc1)c1ncon1)c1ccoc1C1CC1 | -3% | 0.49
2 | CCN(Cc1ccccc1)c1ccc(C(=O)O)cc1NC(=O)c1ccc(Cl)cc1 | 3% | -0.65
3 | CCn1cnnc1[C@H](C)NS(=O)(=O)CC | -3% | 0.39
4 | Cc1nc(-c2ccccc2Cl)sc1CNC(=O)c1cc(-c2cccs2)nn1C | 3% | -0.59
5 | Cc1nn(C)c(C)c1CNC(=O)[C@H]1CCCN(S(=O)(=O)c2ccccc2)CCc2nnc(-c3cccnc3)n2CC1 | -4% | 0.51
6 | CCOCC(=O)OCCc1scnc1C | -2% | 0.27
7 | CS(=O)(=O)N[C@H]1CCCN(C(=O)C2=Cc3ccccc3OC2)C1 | 40% | -3.6
8 | Cc1ccnc(NC(=O)C2=NN(c3ccccc3)[C@H](C(N)=O)C2)c1 | -11% | 0.97
9 | Cc1ccc(C(=O)N(Cc2cccc(C)c2)c2ccc(CC(=O)NCc3ccccn3)cc2)cc1 | -6% | 0.78
10 | COCc1nc([C@H]2CCOC2)cc(N2CCC(NS(C)(=O)=O)CC2)n1 | 9% | -0.81
11 | C[C@H](NCc1ccccc1Cl)C(=O)Nc1ccc2ccccc2c1 | -3% | 0.37
12 | CC1CC(NCc2ccc3c(c2)OCCO3)C1 (stereo unspecified) | -10% | 1.65
13 | CC(C)(C)CCS(=O)(=O)NCCc1cn([C@H]2CCOC2)nn1 | -12% | 1.2
14 | O=C(NCC1(CO)CCC1)C1(O)CCC1 | 6% | -0.98
15 | Cc1ccc(N2C[C@@H](C(=O)N(C)Cc3cc(C)on3)CC2=O)cc1 | 3% | -0.51
16 | Cn1nc(-c2ccccc2)c(CN(C[C@H]2CCCO2)C(=O)C2CCC2)c1Oc1ccc(F)cc1 | -6% | 0.58
17 | CC(=O)NCCn1ccnc1-c1ccc(F)c(F)c1F | -9% | 1.18
18 | CCC1COCCN1C(=O)C1C2CCCCC21 (stereo unspecified) | -3% | 0.5
19 | Cc1csc2c(N3CCCn4cncc4C3)ncnc12 | 0% | -0.07
20 | CCCNC(=O)OC[C@H]1CCCCN1Cc1c(CC)nn(C)c1CC | -6% | 0.88
21 | c1ccc(-c2nc(NCc3nnc4n3CCC4)c3ccccc3n2)cc1 | -2% | 0.41
22 | Cc1cccc(C(NC(=O)N2CCC[C@H]2CO)C(F)(F)F)c1 (stereo partly specified) | -6% | 1.06

Row | SMILES | % Inhibition | Z score
23 | Cc1ccc(-c2cccc(-c3ccn(Cc4c(C)noc4C)n3)c2)c(C)n1 | -5% | 0.64
24 | CCN(Cc1nc2cc(Cl)ccc2c(=O)[nH]1)C(=O)COc1c(C)cc(Br)cc1Cl | 1% | -0.13
25 | COC(=O)C1CC(OC)CN1C(=O)c1cc(C)on1 (stereo unspecified) | -16% | 3
26 | COc1ccc2c(c1)OC13CCN(C)CC1C2C(C(=O)c1ccccc1OC)C(=O)N3 (stereo unspecified) | 58% | -6.85
27 | COc1ccc(CNC(=O)[C@]2(C)Cn3cnc(C(=O)NCc4cccc(OC)c4)c3C(=O)N2C2CC2)cc1 | -7% | 1.13
28 | F[C@@H]1CN(Cc2cnc3ccccc3c2)C[C@@H]1OCc1nc2ccccc2[nH]1 | -10% | 1.51
29 | CN(CC(=O)Nc1cccc(F)c1)CC(=O)Nc1ccccc1Cc1ccccc1 | 11% | -1.23
30 | Cc1ccc(OCc2c(C(=O)N3C[C@@H](C)O[C@@H](C)C3)c(=O)cc(C)n2CCN2CCOCC2)cc1 | 6% | -0.85
31 | C=C=CCNC(=O)c1nc(C2CC2)no1 | 5% | -0.73
32 | O=C(NCc1ccc(Cl)cc1)c1nn[nH]c1Nc1ccccc1F | -5% | 0.65
33 | COc1nc(NC(=O)Cc2coc(-c3ccc(F)cc3)n2)n[nH]1 | 1% | -0.15
34 | CCCn1ncc(-c2nc(CC(N)=O)nn2CC(C)(C)O)c1C | -10% | 1.7
35 | CC1(CCNC(=O)N2CCCC(C3CCCCO3)C2)CC1(F)Cl (stereo unspecified) | -7% | 0.93
36 | Cc1cccc(C2CC(NC[C@@]3(CCO)CCOC3)C2)c1 (stereo partly specified) | -1% | 0.08
37 | CC(C)c1cc(C(=O)N[C@H](CO)Cc2cncs2)no1 | 1% | -0.18
38 | O=c1c(C(F)(F)F)cccn1Cc1nc2c(F)cccc2[nH]1 | -1% | 0.22
39 | Nc1nc(C2CC2)ncc1C(=O)NCc1[nH]nc2c1CCCC2 | -7% | 0.94
40 | CCCn1ccnc1CN1CCN(C)[C@]2(CCC(=O)N(CC3CC3)CC2)C1 | -13% | 2.14
41 | CC1CN(C(=O)c2ccccc2)OC(c2cccs2)O1 (stereo unspecified) | -2% | 0.28
42 | COc1cc2c(cc1OC)CN(C(=O)c1ccc3nsnc3c1)CC2 | -7% | 1.04
43 | Cc1[nH]ccc1C(=O)N[C@@H](C)c1cnn(C)c1C | -18% | 1.81
